Results as given in patent publication US20100009907A1, “Glucagon-Like Peptides and Uses Thereof” (AMYLIN PHARMACEUTICALS, INC., priority 2006, published 2010).
Not every detail of the peptide structures is certain; ends, links or a residue may be inferred. Where no end group is shown, it is not given here.

Experiment: Acute food intake assay (FI Assay)
Format: in vivo, NIH/Swiss mice
Conditions: relative to vehicle
Description: The effect of various test peptides on food intake is investigated using an acute food intake assay. This assay measures food consumption in lean, group-housed, overnight-fasted NIH/Swiss mice. Twelve mice are housed three to a cage. […] Decreased, as well as increased, food intake is measured. Testing of the various doses of the polypeptide generates ED50s.
Female NIH/Swiss mice (8-24 weeks old) are group housed with a 12:12 hour light:dark cycle with lights on at 0600. Water and a standard pelleted mouse chow diet are available ad libitum, except as noted. Animals are fasted starting at approximately 1500 hrs, 1 day prior to experiment. The morning of the experiment, animals are divided into experimental groups.
At time=0 min, all animals are given an intraperitoneal injection of vehicle or compound in an amount ranging from about 63 to 1000 μg/kg, and immediately given a pre-weighed amount (10-15 g) of the standard chow.

Compound | Food Intake % inhibition 30 min (1000 μg/kg intraperitoneal) | Food Intake % inhibition 60 min (1000 μg/kg intraperitoneal) | Food Intake % inhibition 120 min (1000 μg/kg intraperitoneal) | Food Intake % inhibition 180 min (1000 μg/kg intraperitoneal) | Food Intake % inhibition 30 min (63 μg/kg intraperitoneal) | Food Intake % inhibition 60 min (63 μg/kg intraperitoneal) | Food Intake % inhibition 120 min (63 μg/kg intraperitoneal) | Food Intake % inhibition 180 min (63 μg/kg intraperitoneal)
HAEGTFTSDVTQQLDEKAAKEFIDWLINGGASKEIIS-NH2 (C-terminus assumed) [compound 12] | 40% | 57% | 57% | 45% |  |  |  | 
HADGTFTNDMTSYLDAKAARDFVSWLARSDKS-NH2 [compound 52] | 18% | 14% | 6% |  |  |  |  | 
HAEGTYTNDVTELEEKAAKEFIEWLIKGKPKKIRYS-NH2 (C-terminus assumed) [compound 33] | 18% | 18% | 5% |  |  |  |  | 
HAEGTFTNDMTNYLEEKAAKEFVGWLIKGRS-NH2 (C-terminus assumed) [compound 6] |  |  |  |  | 50% | 62% | 49% | 49%
HADGTYTSDVSSYLQDQAAKDFITWLKSGQPKPDAVET-NH2 [compound 48] | 48% | 40% | 8% |  |  |  |  | 
CC[C@H](C)[C@H](NC(=O)[C@H](CC(C)C)NC(=O)[C@H](Cc1c[nH]c2ccccc12)NC(=O)[C@H](CCC(=O)O)NC(=O)[C@@H](NC(=O)[C@H](Cc1ccccc1)NC(=O)[C@H](CCC(=O)O)NC(=O)[C@H](CCCCN)NC(=O)[C@H](C)NC(=O)[C@H](C)NC(=O)[C@H](CCCCN)NC(=O)[C@H](CCC(=O)O)NC(=O)[C@H](CCC(=O)O)NC(=O)[C@H](CC(C)C)NC(=O)[C@H](Cc1ccc(O)cc1)NC(=O)[C@H](CCC(=O)O)NC(=O)[C@@H](NC(=O)[C@@H](NC(=O)[C@H](CC(=O)O)NC(=O)[C@H](CC(N)=O)NC(=O)[C@@H](NC(=O)[C@H](Cc1ccc(O)cc1)NC(=O)[C@@H](NC(=O)CNC(=O)[C@H](CCC(=O)O)NC(=O)[C@H](C)NC(=O)[C@@H](N)Cc1c[nH]cn1)[C@@H](C)O)[C@@H](C)O)C(C)C)[C@@H](C)O)[C@@H](C)CC)C(=O)N[C@@H](CCCCN)C(=O)NCC(=O)N[C@@H](CCCCN)C(=O)N1CCC[C@H]1C(=O)N[C@@H](CCCCN)C(=O)N[C@@H](CCCCN)C(=O)N[C@H](C(=O)N[C@@H](CCCNC(=N)N)C(=O)N[C@@H](Cc1ccc(O)cc1)C(=O)N[C@@H](CO)C(N)=O)[C@@H](C)CC [compound 2] | 41% | 53% | 61% | 55% |  |  |  | 
HAEGTFTSDVTQQLDEKAAKEFIDWLINPGSEGIKSI-NH2 (C-terminus assumed) [compound 14] | 33% | 45% | 31% | 18% |  |  |  | 
HAEGTYTNDVTEYLEEKAAKEFIEWLIK-NH2 (C-terminus assumed) [compound 25] | 58% | 59% | 54% | 32% |  |  |  | 
HAEGTYTNDVTEYLEKAAKEFIEWLIKGKPKKIRYS-NH2 (C-terminus assumed) [compound 29] | −2% | 2% | 1% |  |  |  |  | 
HAEGTYTNDVTEYEEKAAKEFIEWLIKGKPKKIRYS-NH2 (C-terminus assumed) [compound 38] | 9% | 2% | −2% | 0% |  |  |  | 
CC[C@H](C)[C@H](NC(=O)[C@H](CC(C)C)NC(=O)[C@H](Cc1c[nH]c2ccccc12)NC(=O)[C@H](CC(=O)O)NC(=O)[C@@H](NC(=O)[C@H](Cc1ccccc1)NC(=O)[C@H](CCC(=O)O)NC(=O)[C@H](CCCCN)NC(=O)[C@H](C)NC(=O)[C@H](C)NC(=O)[C@H](CCCCN)NC(=O)[C@H](CCC(=O)O)NC(=O)[C@H](CC(=O)O)NC(=O)[C@H](CC(C)C)NC(=O)[C@H](CCC(N)=O)NC(=O)[C@H](CCC(N)=O)NC(=O)[C@@H](NC(=O)[C@@H](NC(=O)[C@H](CC(=O)O)NC(=O)[C@H](CO)NC(=O)[C@@H](NC(=O)[C@H](Cc1ccccc1)NC(=O)[C@@H](NC(=O)CNC(=O)[C@H](CCC(=O)O)NC(=O)[C@H](C)NC(=O)[C@@H](N)Cc1c[nH]cn1)[C@@H](C)O)[C@@H](C)O)C(C)C)[C@@H](C)O)[C@@H](C)CC)C(=O)N[C@@H](CC(N)=O)C(=O)NCC(=O)NCC(=O)N1CCC[C@H]1C(=O)N[C@@H](CO)C(=O)N[C@@H](CCCCN)C(=O)N[C@@H](CCC(=O)O)C(=O)N[C@H](C(=O)N[C@H](C(=O)N[C@@H](CO)C(N)=O)[C@@H](C)CC)[C@@H](C)CC [compound 11] | 48% | 65% | 69% | 68% |  |  |  | 
HAEGTYTNDVTEYLEEAAKEFIEWLIKGKPKKIRYS-NH2 (C-terminus assumed) [compound 30] | 8% | 7% | 3% |  |  |  |  | 
EGTYTNDVTEYLEEKAAKEFIEWLIKGKPKKIRYS-NH2 (C-terminus assumed) [compound 37] | −3% | −3% | −7% |  |  |  |  | 
HAEGTYTNDVTEYLEEKAAKEFIEWLIGKPKKIRYS-NH2 (C-terminus assumed) [compound 35] | 33% | 38% | 36% |  |  |  |  | 
CC[C@H](C)[C@H](NC(=O)[C@H](CC(C)C)NC(=O)[C@H](Cc1c[nH]c2ccccc12)NC(=O)[C@H](CCC(=O)O)NC(=O)[C@@H](NC(=O)[C@H](Cc1ccccc1)NC(=O)[C@H](CCC(=O)O)NC(=O)[C@H](CCCCN)NC(=O)[C@H](C)NC(=O)[C@H](C)NC(=O)[C@H](CCCCN)NC(=O)[C@H](CCC(=O)O)NC(=O)[C@H](CCC(=O)O)NC(=O)[C@H](CC(C)C)NC(=O)[C@H](Cc1ccc(O)cc1)NC(=O)[C@H](CCC(=O)O)NC(=O)[C@@H](NC(=O)[C@@H](NC(=O)[C@H](CC(=O)O)NC(=O)[C@H](CC(N)=O)NC(=O)[C@@H](NC(=O)[C@H](Cc1ccc(O)cc1)NC(=O)[C@@H](NC(=O)CNC(=O)[C@H](CCC(=O)O)NC(=O)[C@H](C)NC(=O)[C@@H](N)Cc1c[nH]cn1)[C@@H](C)O)[C@@H](C)O)C(C)C)[C@@H](C)O)[C@@H](C)CC)C(=O)N[C@@H](CCCCN)C(=O)NCC(=O)N[C@@H](CCCCN)C(=O)N1CCC[C@H]1C(=O)N[C@@H](CCCCN)C(=O)N[C@@H](CCCCN)C(=O)N[C@H](C(=O)N[C@@H](CCCNC(=N)N)C(=O)N[C@@H](Cc1ccc(O)cc1)C(N)=O)[C@@H](C)CC [compound 34] | 28% | 45% | 54% |  |  |  |  | 
YADAPYISDVYSYLQDQVAKKWLKSGQD-NH2 [compound 51] | −6% | −3% | 9% |  |  |  |  | 
